{
  "source": "the supplement of paper PMC8728848",
  "experiment_in_all_cases": "glycan array binding signal (z-score within array); higher = stronger binding",
  "settings_in_all_cases": "glycan notation: IUPAC condensed, linker removed",
  "key": {"[1]": {"target": "Neu5Ac(a2-6)Gal(b1-4)GlcNAc(b1-6)GalNAc", "how_it_was_run": "(§1)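 The binding signal is a Z-score computed within each array. Data were drawn from 3228 arrays in the Consortium for Functional Glycomics database, restricted to those with a known protein sequence. Scores were averaged over arrays of the same protein sequence at different concentrations or buffers, and over linkers, and negative values can be taken as non-binding.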"}, "[2]": {"target": "Neu5Ac(a2-6)Gal(b1-4)GlcNAc(b1-6)[Gal(b1-3)GlcNAc(b1-3)]Gal(b1-4)Glc", "how_it_was_run": "as §1"}, "[3]": {"target": "Neu5Ac(a2-6)Gal(b1-4)GlcNAc(b1-6)[Gal(b1-3)]GalNAc", "how_it_was_run": "as §1"}, "[4]": {"target": "Neu5Ac(a2-6)Gal(b1-4)GlcNAc6S", "how_it_was_run": "as §1"}, "[5]": {"target": "Neu5Ac(a2-6)GalNAc", "how_it_was_run": "as §1"}, "[6]": {"target": "Neu5Ac(a2-6)GalNAc(b1-4)GlcNAc", "how_it_was_run": "as §1"}, "[7]": {"target": "Neu5Ac(a2-6)GalNAc(b1-4)GlcNAc6S", "how_it_was_run": "as §1"}, "[8]": {"target": "Neu5Ac(a2-6)GlcNAc(b1-4)GlcNAc", "how_it_was_run": "as §1"}, "[9]": {"target": "Neu5Ac(a2-6)GlcNAc(b1-4)GlcNAc(b1-4)GlcNAc", "how_it_was_run": "as §1"}, "[10]": {"target": "Neu5Ac(a2-8)Neu5Ac", "how_it_was_run": "as §1"}, "[11]": {"target": "Neu5Ac(a2-8)Neu5Ac(a2-3)Gal(b1-3)GalNAc(b1-4)[Neu5Ac(a2-3)]Gal(b1-4)Glc", "how_it_was_run": "as §1"}, "[12]": {"target": "Neu5Ac(a2-8)Neu5Ac(a2-3)Gal(b1-3)GalNAc(b1-4)[Neu5Ac(a2-8)Neu5Ac(a2-3)]Gal(b1-4)Glc", "how_it_was_run": "as §1"}, "[13]": {"target": "Neu5Ac(a2-8)Neu5Ac(a2-3)Gal(b1-4)Glc", "how_it_was_run": "as §1"}, "[14]": {"target": "Neu5Ac(a2-8)Neu5Ac(a2-3)Gal(b1-4)GlcNAc", "how_it_was_run": "as §1"}, "[15]": {"target": "Neu5Ac(a2-8)Neu5Ac(a2-3)[Gal(b1-3)GalNAc(b1-4)]Gal(b1-4)Glc", "how_it_was_run": "as §1"}, "[16]": {"target": "Neu5Ac(a2-8)Neu5Ac(a2-3)[GalNAc(b1-4)]Gal(b1-4)Glc", "how_it_was_run": "as §1"}, "[17]": {"target": "Neu5Ac(a2-8)Neu5Ac(a2-8)Neu5Ac", "how_it_was_run": "as §1"}, "[18]": {"target": "Neu5Ac(a2-8)Neu5Ac(a2-8)Neu5Ac(a2-3)Gal(b1-4)Glc", "how_it_was_run": "as §1"}, "[19]": {"target": "Neu5Ac(a2-8)Neu5Ac(a2-8)Neu5Ac(a2-3)[Gal(b1-3)GalNAc(b1-4)]Gal(b1-4)Glc", "how_it_was_run": "as §1"}, "[20]": {"target": "Neu5Ac(a2-8)Neu5Ac(a2-8)Neu5Ac(a2-3)[GalNAc(b1-4)]Gal(b1-4)Glc", "how_it_was_run": "as §1"}, "[21]": {"target": "Neu5Ac(a2-8)Neu5Ac(a2-8)Neu5Ac(a2-8)Neu5Ac(a2-3)[GalNAc(b1-4)]Gal(b1-4)Glc", "how_it_was_run": "as §1"}, "[22]": {"target": "Neu5Ac(a2-8)Neu5Gc(a2-3)Gal(b1-4)GlcNAc", "how_it_was_run": "as §1"}, "[23]": {"target": "Neu5Ac(b2-6)Gal(b1-4)GlcNAc", "how_it_was_run": "as §1"}, "[24]": {"target": "Neu5Ac(b2-6)GalNAc", "how_it_was_run": "as §1"}, "[25]": {"target": "Neu5Ac9Ac(a2-3)Gal(b1-3)GlcNAc", "how_it_was_run": "as §1"}, "[26]": {"target": "Neu5Ac9Ac(a2-3)Gal(b1-4)GlcNAc", "how_it_was_run": "as §1"}, "[27]": {"target": "Neu5Ac9Ac(a2-6)Gal(b1-4)GlcNAc", "how_it_was_run": "as §1"}, "[28]": {"target": "Neu5Gc(a2-3)Gal(b1-3)GlcNAc", "how_it_was_run": "as §1"}, "[29]": {"target": "Neu5Gc(a2-3)Gal(b1-3)[Fuc(a1-4)]GlcNAc", "how_it_was_run": "as §1"}, "[30]": {"target": "Neu5Gc(a2-3)Gal(b1-4)Glc", "how_it_was_run": "as §1"}, "[31]": {"target": "Neu5Gc(a2-3)Gal(b1-4)GlcNAc", "how_it_was_run": "as §1"}, "[32]": {"target": "Neu5Gc(a2-3)Gal(b1-4)GlcNAc(b1-3)Gal(b1-4)GlcNAc(b1-2)Man(a1-3)[Neu5Gc(a2-3)Gal(b1-4)GlcNAc(b1-3)Gal(b1-4)GlcNAc(b1-2)Man(a1-6)]Man(b1-4)GlcNAc(b1-4)GlcNAc", "how_it_was_run": "as §1"}, "[33]": {"target": "Neu5Gc(a2-3)Gal(b1-4)[Fuc(a1-3)]GlcNAc", "how_it_was_run": "as §1"}, "[34]": {"target": "Neu5Gc(a2-6)Gal(b1-4)GlcNAc", "how_it_was_run": "as §1"}, "[35]": {"target": "Neu5Gc(a2-6)GalNAc", "how_it_was_run": "as §1"}, "[36]": {"target": "Neu5Gc(a2-8)Neu5Ac(a2-3)Gal(b1-4)GlcNAc", "how_it_was_run": "as §1"}, "[37]": {"target": "Neu5Gc(a2-8)Neu5Gc(a2-3)Gal(b1-4)GlcNAc", "how_it_was_run": "as §1"}, "[38]": {"target": "Neu5Gc(a2-8)Neu5Gc(a2-3)Gal(b1-4)GlcNAc(b1-3)Gal(b1-4)GlcNAc", "how_it_was_run": "as §1"}},
  "note": "Some of the results follow.",
  "data": [
    {"binder": "GS14009A-pdi-495-27-495 (Parabacteroides distasonis) (protein) FEEVNTDPDSPTDVPTTNLLAYSLYYTSYRLYDRWFAMDEPMTFCGYASKMTYIDESRYNFRTGVQDTNWEYLYRILNNLKDIEKRATFNETPNMLNVSKVMQVHLMQVATDRWRDVPYTDAAKMTDGILQPKYDKQEDIYPGLLATLKEAADGFADGGSDDLGEGDLLFGGDIEKWQRYCNSMRLRLAMRISEVSPALAKETVEEVMGNPTKYPIMESNDDNAFFWWIGTDPNYYEPMADGYRTRKTEYCAADVIVDHMNTREDPRRSSYFQPTKESVEAGEPKYVGYTIGAKANAVASKYSIWGARFFTDLAGFSPYMRVAEPWFCVAEASMLGWNTGISAEDAYNKAVTYSMEENSVSAEDIADYLANAGKFTNDKKQIYYEEWVAMFKQGMEGWSLYRRTGVPDNLYPAPGRPANYSNHNVPPFRSPYPDKERNLNNANCAPFDAEVVDNLWGKQMWWDTRTGVH", "values": [
      {"measurement": "glycan array binding signal (z-score)", "setting": "[1]", "result": 0.102},
      {"measurement": "glycan array binding signal (z-score)", "setting": "[2]", "result": -0.519},
      {"measurement": "glycan array binding signal (z-score)", "setting": "[3]", "result": 0.564},
      {"measurement": "glycan array binding signal (z-score)", "setting": "[4]", "result": -0.405},
      {"measurement": "glycan array binding signal (z-score)", "setting": "[5]", "result": -0.021},
      {"measurement": "glycan array binding signal (z-score)", "setting": "[6]", "result": -0.069},
      {"measurement": "glycan array binding signal (z-score)", "setting": "[7]", "result": -0.361},
      {"measurement": "glycan array binding signal (z-score)", "setting": "[8]", "result": -0.598},
      {"measurement": "glycan array binding signal (z-score)", "setting": "[9]", "result": -0.171},
      {"measurement": "glycan array binding signal (z-score)", "setting": "[10]", "result": -0.289},
      {"measurement": "glycan array binding signal (z-score)", "setting": "[11]", "result": -0.074},
      {"measurement": "glycan array binding signal (z-score)", "setting": "[12]", "result": -0.264},
      {"measurement": "glycan array binding signal (z-score)", "setting": "[13]", "result": -0.466},
      {"measurement": "glycan array binding signal (z-score)", "setting": "[14]", "result": 0.444},
      {"measurement": "glycan array binding signal (z-score)", "setting": "[15]", "result": 1.13},
      {"measurement": "glycan array binding signal (z-score)", "setting": "[16]", "result": 0.357},
      {"measurement": "glycan array binding signal (z-score)", "setting": "[17]", "result": 0.027},
      {"measurement": "glycan array binding signal (z-score)", "setting": "[18]", "result": -0.037},
      {"measurement": "glycan array binding signal (z-score)", "setting": "[19]", "result": 0.501},
      {"measurement": "glycan array binding signal (z-score)", "setting": "[20]", "result": -0.405},
      {"measurement": "glycan array binding signal (z-score)", "setting": "[21]", "result": -0.277},
      {"measurement": "glycan array binding signal (z-score)", "setting": "[22]", "result": -0.169},
      {"measurement": "glycan array binding signal (z-score)", "setting": "[23]", "result": -0.493},
      {"measurement": "glycan array binding signal (z-score)", "setting": "[24]", "result": -0.455},
      {"measurement": "glycan array binding signal (z-score)", "setting": "[25]", "result": -0.342},
      {"measurement": "glycan array binding signal (z-score)", "setting": "[26]", "result": -0.016},
      {"measurement": "glycan array binding signal (z-score)", "setting": "[27]", "result": -0.284},
      {"measurement": "glycan array binding signal (z-score)", "setting": "[28]", "result": -0.144},
      {"measurement": "glycan array binding signal (z-score)", "setting": "[29]", "result": -0.361},
      {"measurement": "glycan array binding signal (z-score)", "setting": "[30]", "result": -0.286},
      {"measurement": "glycan array binding signal (z-score)", "setting": "[31]", "result": -0.276},
      {"measurement": "glycan array binding signal (z-score)", "setting": "[32]", "result": -0.109},
      {"measurement": "glycan array binding signal (z-score)", "setting": "[33]", "result": -0.548},
      {"measurement": "glycan array binding signal (z-score)", "setting": "[34]", "result": -0.394},
      {"measurement": "glycan array binding signal (z-score)", "setting": "[35]", "result": -0.671},
      {"measurement": "glycan array binding signal (z-score)", "setting": "[36]", "result": -0.282},
      {"measurement": "glycan array binding signal (z-score)", "setting": "[37]", "result": -0.499},
      {"measurement": "glycan array binding signal (z-score)", "setting": "[38]", "result": -0.092}
    ]}
  ]
}
